# Measured values: the supplement of paper PMC3334620
# The full ranking holds about 33,000 sequences; the median of “E-score (-0.5 to 0.5)” is about -0.012, and the highest 2% start at about 0.27. This is one part of the list.
# Target: T1, Vhr1 (UniProt P40522)
# T1 sequence: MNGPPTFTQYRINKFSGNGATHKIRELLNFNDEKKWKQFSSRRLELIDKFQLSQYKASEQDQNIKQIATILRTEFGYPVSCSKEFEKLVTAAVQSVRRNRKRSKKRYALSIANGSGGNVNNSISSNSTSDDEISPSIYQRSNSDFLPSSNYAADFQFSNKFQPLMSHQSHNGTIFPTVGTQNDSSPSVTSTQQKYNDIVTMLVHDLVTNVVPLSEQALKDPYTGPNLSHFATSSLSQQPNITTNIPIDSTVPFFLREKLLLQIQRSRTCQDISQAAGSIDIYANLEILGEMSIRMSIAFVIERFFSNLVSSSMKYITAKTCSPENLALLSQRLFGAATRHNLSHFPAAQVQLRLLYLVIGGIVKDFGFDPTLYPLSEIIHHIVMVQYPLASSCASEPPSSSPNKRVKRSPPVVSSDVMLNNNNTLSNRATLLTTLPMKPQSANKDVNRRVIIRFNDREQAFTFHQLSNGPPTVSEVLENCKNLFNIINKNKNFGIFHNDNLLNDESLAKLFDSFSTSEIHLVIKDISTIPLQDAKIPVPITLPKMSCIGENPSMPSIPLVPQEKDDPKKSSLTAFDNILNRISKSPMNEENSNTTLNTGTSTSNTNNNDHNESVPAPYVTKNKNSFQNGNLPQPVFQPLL
# Experiment: PBM E-score (8-mer binding enrichment) (E-score (-0.5 to 0.5)); higher = stronger / more preferred TF binding; most listed sequences are background and not binding sites
# Conditions: protein concentration: 200 nM; construct: GST-full length
# Summary of the method: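 PURExpress in vitro transcription/translation supplied GST-tagged yeast transcription factors, either full-length or DNA-binding domain. Applied at about 100-200 nM to universal all-10-mer Agilent arrays double-stranded by primer extension, the bound protein was detected with fluorescent anti-GST. E-scores, modified Wilcoxon-Mann-Whitney statistics, were given by the Universal PBM Analysis Suite to ungapped eight-base words pooled with their reverse complements after masliner normalisation.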
row,Sequence,PBM E-score
1,GTTCATGA,0.142
2,AGCGCATG,-0.0159
3,CATTAGCG,-0.128
4,AGCAGAAA,-0.0637
5,ATGCTCAG,0.141
6,AGAGATGA,0.107
7,CACATCGG,0.191
8,GGCACCTA,-0.143
9,AGCATCTA,0.0249
10,AGAGAATA,0.0402
11,AAACATTG,-0.0198
12,AGTAATTC,-0.183
13,AGTCGAGC,0.0485
14,TCCCTTCA,-0.0485
15,ACACCCAG,0.125
16,AATAAGGG,-0.109
17,CTATCCAA,-0.00927
18,AACATCGG,0.0341
19,ATTTAAGC,-0.151
20,CGAATCCA,-0.0103
21,TGTATACA,0.0245
22,GTGCATTA,-0.0983

row,Sequence,PBM E-score
1,GCAGCCTA,-0.207
2,AGCTGACG,-0.12
3,GGACCAAC,0.104
4,CGACATGA,0.181
5,TAGCTTCA,-0.112
6,CTACTTCC,-0.0528
7,TAGTGATA,0.102
8,CGAGGTAC,0.0216
9,AAATGGGC,-0.207
10,ATATTCTA,0.122
11,CTTCATTA,0.0378
12,GACGTAGC,-0.175
13,ACGCTACG,-0.127
14,CTGTCCTC,-0.064
15,GTCAGGTA,0.126
16,ATAGAGCA,-0.107
17,GTATGTGA,0.0539
18,CGTAAACA,-0.034
19,CATATGTA,0.142
20,AACTCTCC,-0.0567
21,AGACATGC,-0.00111
22,TGCGTGAA,-0.0372

row,Sequence,PBM E-score
1,CGAAACAG,0.0846
2,AGGTGCAT,0.0449
3,CAGCTGTC,-0.0706
4,GCTACCAC,0.00628
5,AACACCGA,0.108
6,AAGGGGTA,-0.112
7,ATGCATGA,0.165
8,CTAGACTC,0.0235
9,AAGCCTAA,-0.214
10,ATACCGTC,0.00895
11,AAGTCTCC,-0.227
12,CATGAGCA,0.125
13,CAATTGTG,0.0659
14,CGCAGATC,-0.0184
15,CGACTACG,0.188
16,CTGATACA,0.0817
17,AGCCACAC,0.189
18,AAACTCAT,0.205
19,CGGCGCCG,0.252
20,TAAACTCA,0.00823
21,CGAGTCAA,0.278
22,TAACATCA,0.118

row,Sequence,PBM E-score
1,ACCCAGGG,0.188
2,GAATCCGC,0.0532
3,TAGGACGA,-0.0939
4,CCGACCGC,-0.161
5,ACGCGTCA,0.0944
6,GTCTGACA,0.148
7,AGCTCGCC,0.069
8,GCATCACA,0.0717
9,GTCTTGCA,-0.138
10,AATCTACT,0.022
11,GCATCGAA,-0.248
12,GCCTACAC,-0.141
13,ATTCGTGG,0.102
14,CTGCGGGA,-0.0929
15,AGACCGTG,-0.0231
16,ACGTGAGC,-0.101
17,ACTATACA,0.131
18,CGAGGGTA,0.00641
19,TAATATGA,0.158
20,CGTAATGA,0.0462
